Results as given in PMC9911399, “Two distinct binding modes provide the RNA-binding protein RbFox with extraordinary sequence specificity”.
Changes are numbered by the printed parent chain; changes in the protein carry UniProt numbers. The list shows a part of the results.

B1: UAGCUCU (DNA:RNA)
RNA: GGGAGACCGGAAUUCAGAUUGUCCUAGCUCUUUAAAUCCCGUCGUAGCCACCA
DNA 1: CAATCTGAATTCCGGTCTCCC
DNA 2: TGGTGGCTACGACGGGATT
B2: CGGAUCU (DNA:RNA)
RNA: B1 RNA with U25C, A26G, C28A
DNA 1: CAATCTGAATTCCGGTCTCCC
DNA 2: TGGTGGCTACGACGGGATT
B3: UUUGAGU (DNA:RNA)
RNA: B1 RNA with A26U, G27U, C28G, U29A, C30G
DNA 1: CAATCTGAATTCCGGTCTCCC
DNA 2: TGGTGGCTACGACGGGATT
B4: AUGGAGG (DNA:RNA)
RNA: B1 RNA with U25A, A26U, C28G, U29A, C30G, U31G
DNA 1: CAATCTGAATTCCGGTCTCCC
DNA 2: TGGTGGCTACGACGGGATT
B5: GCUAGUA (DNA:RNA)
RNA: GGGAGACCGGAAUUCAGAUUGUCCGCUAGUAUUAAAUCCCGUCGUAGCCACCA
DNA 1: CAATCTGAATTCCGGTCTCCC
DNA 2: TGGTGGCTACGACGGGATT
B6: AUCCCAA (DNA:RNA)
RNA: B5 RNA with G25A, C26U, U27C, A28C, G29C, U30A
DNA 1: CAATCTGAATTCCGGTCTCCC
DNA 2: TGGTGGCTACGACGGGATT
B7: UGUACAA (DNA:RNA)
RNA: B5 RNA with G25U, C26G, G29C, U30A
DNA 1: CAATCTGAATTCCGGTCTCCC
DNA 2: TGGTGGCTACGACGGGATT
B8: GUGAGAA (DNA:RNA)
RNA: B5 RNA with C26U, U27G, U30A
DNA 1: CAATCTGAATTCCGGTCTCCC
DNA 2: TGGTGGCTACGACGGGATT
B9: CCCGGAC (DNA:RNA)
RNA: B5 RNA with G25C, U27C, A28G, U30A, A31C
DNA 1: CAATCTGAATTCCGGTCTCCC
DNA 2: TGGTGGCTACGACGGGATT
B10: AUUCCCU (DNA:RNA)
RNA: B1 RNA with U25A, A26U, G27U, U29C
DNA 1: CAATCTGAATTCCGGTCTCCC
DNA 2: TGGTGGCTACGACGGGATT
B11: UUGGAGC (DNA:RNA)
RNA: B1 RNA with A26U, C28G, U29A, C30G, U31C
DNA 1: CAATCTGAATTCCGGTCTCCC
DNA 2: TGGTGGCTACGACGGGATT
B12: CCUGGGU (DNA:RNA)
RNA: B5 RNA with G25C, A28G, U30G, A31U
DNA 1: CAATCTGAATTCCGGTCTCCC
DNA 2: TGGTGGCTACGACGGGATT
B13: CAGCCCA (DNA:RNA)
RNA: B1 RNA with U25C, U29C, U31A
DNA 1: CAATCTGAATTCCGGTCTCCC
DNA 2: TGGTGGCTACGACGGGATT
B14: UCAUAUA (DNA:RNA)
RNA: B5 RNA with G25U, U27A, A28U, G29A
DNA 1: CAATCTGAATTCCGGTCTCCC
DNA 2: TGGTGGCTACGACGGGATT
B15: CUAGGUG (DNA:RNA)
RNA: B5 RNA with G25C, C26U, U27A, A28G, A31G
DNA 1: CAATCTGAATTCCGGTCTCCC
DNA 2: TGGTGGCTACGACGGGATT
B16: CGGUAAU (DNA:RNA)
RNA: B1 RNA with U25C, A26G, C28U, U29A, C30A
DNA 1: CAATCTGAATTCCGGTCTCCC
DNA 2: TGGTGGCTACGACGGGATT
B17: UCAUAGC (DNA:RNA)
RNA: B5 RNA with G25U, U27A, A28U, G29A, U30G, A31C
DNA 1: CAATCTGAATTCCGGTCTCCC
DNA 2: TGGTGGCTACGACGGGATT
B18: CUCAGAG (DNA:RNA)
RNA: B5 RNA with G25C, C26U, U27C, U30A, A31G
DNA 1: CAATCTGAATTCCGGTCTCCC
DNA 2: TGGTGGCTACGACGGGATT
B19: AAUUUCC (DNA:RNA)
RNA: B1 RNA with U25A, G27U, C28U, U31C
DNA 1: CAATCTGAATTCCGGTCTCCC
DNA 2: TGGTGGCTACGACGGGATT
B20: UGGCCCG (DNA:RNA)
RNA: B1 RNA with A26G, U29C, U31G
DNA 1: CAATCTGAATTCCGGTCTCCC
DNA 2: TGGTGGCTACGACGGGATT

The binders below were run against T1, RBFOX1 RRM (Homo sapiens, UniProt Q9NWB1 109-208) (assay: EMSA; HiTS-Eq, 1 nM pool, 10 min; buffer printed only for the single-RNA assays: 10 mM Tris pH 7.5, 150 mM NaCl, 3.4 mM EDTA, 0.001% NP-40, 30 C). Conditions: tags: His6 N-terminal (pET28a); label: 5' 32P.
T1 sequence: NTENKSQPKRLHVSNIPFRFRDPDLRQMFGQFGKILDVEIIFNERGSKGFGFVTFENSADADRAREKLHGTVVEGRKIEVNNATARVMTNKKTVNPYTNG
Outline: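 Purified RbFox RRM (wild type or mutant) was equilibrated for 10 min in 50 µL with 1 nM of a 5′-radiolabelled pool of RNA with 7 randomized nucleotides, its flanks annealed to DNA oligonucleotides, across increasing protein concentrations. Free RNA was separated by 8% native PAGE, excised, reverse-transcribed, PCR-barcoded and sequenced on an Illumina HiSeq 2500. Relative association constants came from read-count changes of each variant against the control reaction, normalised to the cognate motif.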

| Binder | binding signal |
| --- | --- |
| B1 | 0.0138 KA relative to UGCAUGU |
| B2 | 0.0232 KA relative to UGCAUGU |
| B3 | 0.0173 KA relative to UGCAUGU |
| B4 | 0.0135 KA relative to UGCAUGU |
| B5 | 0.0137 KA relative to UGCAUGU |
| B6 | 0.00187 KA relative to UGCAUGU |
| B7 | 0.0102 KA relative to UGCAUGU |
| B8 | 0.015 KA relative to UGCAUGU |
| B9 | 0.00558 KA relative to UGCAUGU |
| B10 | 0.0014 KA relative to UGCAUGU |
| B11 | 0.0134 KA relative to UGCAUGU |
| B12 | 0.0115 KA relative to UGCAUGU |
| B13 | 0.00257 KA relative to UGCAUGU |
| B14 | 0.00295 KA relative to UGCAUGU |
| B15 | 0.0181 KA relative to UGCAUGU |
| B16 | 0.0103 KA relative to UGCAUGU |
| B17 | 0.00582 KA relative to UGCAUGU |
| B18 | 0.0127 KA relative to UGCAUGU |
| B19 | 0.00118 KA relative to UGCAUGU |
| B20 | 0.0217 KA relative to UGCAUGU |
